# Data from PubChem BioAssay AID602233 (National Center for Advancing Translational Sciences (NCATS), 2012).
# Out of some 380,000 compounds screened, about 170 (0.045%) were called active. The shares of active, inactive and inconclusive entries below differ from those in the screen. The call rests on the fitted dose curve; in most records, active means well fitted inhibition curve with a large enough effect; inconclusive means small, poorly fitted or top-dose-only effect; inactive means no such curve, though single readings can be large or run the other way. Potencies of inconclusive entries are left out as doubtful fits.
# Biological target: Phosphoglycerate kinase, glycosomal (Trypanosoma brucei brucei) (UniProt P07378)
# Test: qHTS Assay to Find Inhibitors of Phosphoglycerate Kinase; further: nearly all actives have a fitted effect of over 60% in size
# Conditions: PGK/GAPDH coupled, Kinase-Glo luminescence, 60 min; series mostly up to 57.5 µM
# Method in brief: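 Luminescent ATP detection (Kinase-Glo Plus) follows a 60-minute room-temperature incubation, with wells lacking PGK as controls. Buffer: 100 mM TEA (pH 7.6), 5 mM MgCl2, 0.01% Tween-20. Coupling enzyme GAPDH (100 nM final) supplies unstable 1,3-BPG in-well.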
# Potency means the concentration at half of the fitted maximal effect; tags describe the fitted curve by direction and shape.
row,SMILES,Potency
1,NN1C(=O)/C(=C2/Sc3ccccc3N2CCCS(=O)(=O)O)SC1=S,"inconclusive [inhibitor, single point]"
2,Cc1ccc2sc(NNC(=O)c3cc(=O)c4ccccc4o3)nc2c1C,inactive
3,COc1cc(/C=N/NC(=O)C(Cc2c[nH]c3ccccc23)NC(=O)OCC(C)C)cc([N+](=O)[O-])c1O (stereo not drawn),inactive
4,O=C(COC(=O)CCC(=O)c1ccc(Cl)cc1)NCc1ccco1,"inconclusive [inhibitor, single point]"
5,CNC(=O)COC(=O)c1cc(-c2ccco2)nc2ccccc12,"inconclusive [inhibitor, partial curve, poor fit]"
6,CN(CC(O)CN)CC(O)CN1CCCCC1 (stereo not drawn),"inconclusive [inhibitor, single point]"
7,Cc1cc(S(=O)(=O)NCc2ccc(N3CCN(C)CC3)cc2)c(C)s1,inactive
8,O=C(COC(=O)C1CC2C=CC1C2)NCc1ccco1 (stereo not drawn),active: 31.6 µM
9,Cc1ccsc1C=Nc1ccc(O)cc1,"inconclusive [inhibitor, single point]"
10,CCOc1ccccc1N1CCN(C(=O)c2ccc(Cl)c(S(=O)(=O)N3CCCCC3)c2)CC1,inactive
11,C#CCOCCOCCOCCNc1nc(N2CCN(C(=O)CCCCCCCCCCNC(=O)[C@@H](CCC(=O)O)n3cc(CCCCCN)nn3)CC2)nc(N2CCN(C(=O)CCCCCCCCCCNC(=O)[C@H](CO)n3cc(CCCCCN)nn3)CC2)n1,inactive
12,COCC(=O)Nc1cccc(Br)c1,inactive
13,O=C(O)C(O)c1ccco1 (stereo not drawn),active: 14.1 µM
14,Cc1csc(NC(=O)c2cn3ccccc3n2)n1,"inconclusive [inhibitor, partial curve, poor fit]"
15,N#C/C(=C\c1ccc(OCc2ccc(Cl)cc2)cc1)C(=O)Nc1cccc(C(=O)O)c1,"inconclusive [inhibitor, partial curve, poor fit]"
16,S=C(Nc1ccccc1)N1CCCCC1,"inconclusive [inhibitor, partial curve, poor fit]"
17,COc1ccc2c(c1)[nH]c1c(=O)n(CCN3CCOCC3)cnc12,"inconclusive [inhibitor, partial curve, poor fit]"
18,O=C(O)CSc1cc(C(=O)c2ccccc2O)cn2c(=O)c3c(-c4ccccc4)csc3nc12,"inconclusive [inhibitor, single point]"
19,COc1cc(CCc2ccccc2)c(C(=O)O)c(O)c1C/C=C(/C)CCC=C(C)C,"inconclusive [inhibitor, single point]"
20,Cc1cccc(NC(=O)CSc2nnc(-c3ccco3)c(-c3ccco3)n2)c1,inactive
21,CCOc1ccc(N2CC(c3nc4ccccc4n3CCCOc3ccccc3OC)CC2=O)cc1 (stereo not drawn),inactive
22,O=C(CSc1ccsc1[N+](=O)[O-])Nc1cc(F)ccc1F,"inconclusive [inhibitor, partial curve]"
23,O=C(N/N=C/c1ccco1)c1ccc(NC(=O)c2ccc(Cl)cc2)cc1,inactive

row,SMILES,Potency
1,O=c1c(O)c(-c2ccc(O)c(O)c2)oc2cc(O)ccc12,"inconclusive [inhibitor, full curve, poor fit]"
2,OCC1(Cc2cccc(C(F)(F)F)c2)CCN(Cc2cc3ccccc3o2)CC1,inactive
3,O=C(NC1(O)C(=O)c2ccccc2C1=O)c1ccc(C(F)(F)F)cc1,"inconclusive [inhibitor, partial curve, poor fit]"
4,CCOC(=O)c1cnc2c(OC)cccc2c1N1CCN(c2ccccc2OC)CC1,inactive
5,CN(C)c1ccc(N/C=C/C(=O)c2ccco2)cc1,"inconclusive [inhibitor, partial curve, poor fit]"
6,O=C(CN1C(=O)c2cccc3cccc1c23)Nc1ccccc1,"inconclusive [inhibitor, single point]"
7,C/C(=N\NC(=O)c1cc(O)cc(O)c1)c1ccc(NC(=O)Cc2ccccc2)cc1,active: 7.94 µM
8,O=C(Cc1ccc(Br)cc1)N/N=C/c1cccnc1,inactive
9,CC(C)N=C1NN=C(c2ccc(F)cc2)CS1,"inconclusive [inhibitor, partial curve, poor fit]"
10,C/C(=N\NC(=O)c1ccc2c(c1)OCO2)c1ccco1,"inconclusive [inhibitor, partial curve]"
11,O=[N+]([O-])c1cc2c(cc1Br)CCN2,inactive
12,O=C(c1ccccc1)c1ccc(O)c(O)c1O,"inconclusive [inhibitor, partial curve]"
13,COc1ccc(/C=C2\C(=O)NC(=S)N2C(=O)c2ccc(F)cc2)cc1,"inconclusive [inhibitor, single point]"
14,Cc1ccc(CN2C(=O)N/C(=C\c3cccn3-c3cccc(C(=O)O)c3)C2=O)cc1,"inconclusive [inhibitor, single point]"
15,O=C1c2cc([N+](=O)[O-])cc3cc([N+](=O)[O-])cc(c23)C(=O)N1c1ccccn1,"inconclusive [inhibitor, partial curve, poor fit]"
16,COc1ccc(-c2cc(C(=O)N3CCOCC3)c3ccccc3n2)cc1OC,inactive
17,CC[C@H](C)[C@H]1CNC(=S)N1CC1CCN(CC)CC1,"inconclusive [inhibitor, single point]"
18,COc1ccc(C2=CC3=C(Br)C(=O)C(C)(O)C(=O)C3=CO2)cc1 (stereo not drawn),active: 20 µM
19,CC(CCC(C)C(C)(C)C)[C@@H]1CC[C@H]2C3C[C@H](OS(O)(=S)=S)[C@H]4C[C@H](OS(O)(=S)=S)[C@@H](OS(O)(=S)=S)C[C@]4(C)[C@H]3CC[C@]12C (stereo partly drawn) (tested in a mixture with another compound),active: 25.1 µM
20,O=C(/C=C/c1ccco1)Nc1cccc(C(=O)Nc2ccccc2C(=O)O)c1,active: 31.6 µM
21,CCOC(=O)C1(Cc2ccc(Cl)cc2)CCN(C(C)Cc2ccc(O)c(OC)c2)CC1 (stereo not drawn),inactive
22,CCOc1ccccc1NC(=O)C(NS(=O)(=O)c1ccc2c(c1)CCC(=O)N2)c1ccccc1 (stereo not drawn),inactive
23,Cc1ccc(N(Cc2cc3ccccc3[nH]c2=O)C(=O)c2ccco2)c(C)c1,"inconclusive [inhibitor, single point]"

row,SMILES,Potency
1,O=c1[nH]c(CN2CCN(S(=O)(=O)c3ccccc3C(F)(F)F)CC2)nc2sc3c(c12)CCCC3,inactive
2,Cc1nonc1C(=O)N/N=C/c1ccc(O)cc1,"inconclusive [inhibitor, partial curve, poor fit]"
3,CN(C)c1ccc2nc3ccc(=[N+](C)C)cc-3sc2c1,"inconclusive [inhibitor, partial curve, poor fit]"
4,Cn1nccc1C(=O)Nc1ccc2c(c1)OCCO2,"inconclusive [inhibitor, partial curve, poor fit]"
5,N/C(=N\OC(=O)c1ccccc1Cl)c1ccccn1,"inconclusive [inhibitor, partial curve, poor fit]"
6,CCOc1cc(/C=C2/NC(=O)NC2=O)cc(Br)c1OCc1ccc(C(=O)O)cc1,"inconclusive [inhibitor, single point]"
7,COc1ccc2cc(C)c3nnc(SCC(=O)Nc4cc(OC)c(OC)cc4C(=O)O)n3c2c1,inactive
8,Nc1nc(SCC(=O)Nc2ncc(Cl)cc2Cl)n[nH]1,inactive
9,COc1cc(OC)nc(Oc2cc(C=O)ccc2OC)n1,"inconclusive [inhibitor, partial curve, poor fit]"
10,CC(=O)c1sc(C(=O)O)c(-c2ccco2)c1-c1ccco1,inactive
11,CC1=NN(c2nc3ccccc3[nH]2)C(=O)/C1=C/N(C)C,"inconclusive [inhibitor, partial curve]"
12,CN(C)S(=O)(=O)c1cccc(-c2nn(-c3ccccc3)cc2/C=C2\SC(=S)N(CC(=O)O)C2=O)c1,"inconclusive [inhibitor, single point]"
13,O=C(NCc1ccccc1)c1ccc(NC(=O)C2CCCC2)cc1,"inconclusive [inhibitor, partial curve, poor fit]"
14,O=C1NC2c3c(Cl)sc(Cl)c3C(=O)C2O1 (stereo not drawn),"inconclusive [inhibitor, single point]"
15,O=C(O)CCCCCN1C(=O)/C(=C/c2cn(-c3ccccc3)nc2-c2cccs2)SC1=S,"inconclusive [inhibitor, partial curve, poor fit]"
16,Cc1cccc(/C(N)=N/OC(=O)c2ccc3c(c2)OCO3)c1,"inconclusive [inhibitor, partial curve, poor fit]"
17,O=C(Nc1ccccc1)c1ccc2c(c1)OCCO2,"inconclusive [inhibitor, partial curve, poor fit]"
18,Cc1ccc(N=Cc2cc(Cc3ccccc3Cl)cc([N+](=O)[O-])c2O)c(O)c1,"inconclusive [inhibitor, partial curve, poor fit]"
19,CC(=O)Nc1ccc(NC(=O)CCc2nc3sc4c(c3c(=O)[nH]2)CCCC4)cc1,inactive
20,COc1ccc(-c2nnc(SCC(=O)Nc3ccc(C(C)=O)cc3)nc2-c2ccc(OC)cc2)cc1,inactive
21,O=C(c1ccc(Cl)c([N+](=O)[O-])c1)N1CCN(S(=O)(=O)c2ccc(Cl)cc2)CC1,inactive
22,C=C(C)C(=O)Nc1ccc2c(c1)OCCOCCOCCO2,"inconclusive [inhibitor, partial curve]"
